The full ranking holds about 33,000 sequences; the median of “E-score (dimensionless, -0.5 to 0.5)” is about -0.058, and the highest 2% start at about 0.35. The list shows a part of the results.
System: MvaT
Test: PBM 8-mer E-score (mean of HK and ME arrays) (E-score (dimensionless, -0.5 to 0.5)); higher = stronger relative binding preference; most listed sequences are background and not binding sites
Protocol: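 Protein binding microarray: GST-tagged full-length MvaT (P. aeruginosa PAO1) bound to two universal double-stranded 60-mer arrays (ME and HK), each with a constant 25-mer primer and a variable 35-mer region covering all 8-mers. The 8-mer E-score (rank-based, range -0.5 to 0.5, >0.45 = specific binding) is the mean of the two arrays.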

| Sequence | PBM 8-mer E-score |
| --- | --- |
| ACCCTGCG | -0.237 |
| CAGGCTGA | -0.0844 |
| CGGGTTGA | -0.0597 |
